# Experimental data: publication PMC4336329 (PLoS ONE, 2015)
# Screen size: about 310,000 compounds; about 14,000 (4.5%) showed an effect of 50% or more. Effects have a minus sign here. This is one part of the list.
# Target: human ether-à-go-go-related gene (hERG) potassium channel (human, UniProt Q12809)
# Test: primary screen, population patch clamp on CHO cells stably expressing hERG
# 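Further: peak tail current of the secondary pulse compared with the same well before compound.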
# Sequence of human ether-à-go-go-related gene (hERG) potassium channel (Q12809 whole entry, looked up): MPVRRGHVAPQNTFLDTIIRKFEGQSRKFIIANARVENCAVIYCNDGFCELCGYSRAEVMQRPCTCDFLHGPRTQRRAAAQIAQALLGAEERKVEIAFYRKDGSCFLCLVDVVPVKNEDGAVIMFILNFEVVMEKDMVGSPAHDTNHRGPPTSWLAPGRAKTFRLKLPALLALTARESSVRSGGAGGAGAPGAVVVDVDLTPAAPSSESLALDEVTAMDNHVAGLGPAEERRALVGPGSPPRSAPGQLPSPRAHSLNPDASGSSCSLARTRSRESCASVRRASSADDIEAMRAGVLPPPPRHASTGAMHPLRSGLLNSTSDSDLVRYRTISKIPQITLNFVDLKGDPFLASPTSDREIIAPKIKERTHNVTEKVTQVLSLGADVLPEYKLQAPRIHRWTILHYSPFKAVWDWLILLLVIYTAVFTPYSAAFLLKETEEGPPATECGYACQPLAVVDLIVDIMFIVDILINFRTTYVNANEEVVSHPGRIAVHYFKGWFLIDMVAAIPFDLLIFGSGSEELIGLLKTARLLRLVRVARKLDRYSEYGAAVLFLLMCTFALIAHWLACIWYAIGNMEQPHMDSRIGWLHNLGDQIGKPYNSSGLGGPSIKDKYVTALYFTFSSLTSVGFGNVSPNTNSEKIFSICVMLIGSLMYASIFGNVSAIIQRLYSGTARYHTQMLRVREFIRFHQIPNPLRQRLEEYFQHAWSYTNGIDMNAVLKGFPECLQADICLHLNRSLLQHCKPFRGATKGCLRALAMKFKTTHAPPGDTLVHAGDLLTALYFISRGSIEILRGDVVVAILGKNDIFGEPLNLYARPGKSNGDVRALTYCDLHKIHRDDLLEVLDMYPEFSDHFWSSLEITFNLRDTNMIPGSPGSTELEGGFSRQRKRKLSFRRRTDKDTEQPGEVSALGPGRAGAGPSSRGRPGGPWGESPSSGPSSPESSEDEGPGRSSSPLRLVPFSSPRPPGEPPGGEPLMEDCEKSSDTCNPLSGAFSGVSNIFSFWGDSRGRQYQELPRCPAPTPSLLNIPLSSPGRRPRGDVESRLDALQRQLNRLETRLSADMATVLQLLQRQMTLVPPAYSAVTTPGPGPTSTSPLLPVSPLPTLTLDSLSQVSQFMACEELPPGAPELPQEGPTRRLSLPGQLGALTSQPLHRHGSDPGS
row,SMILES,"hERG current change (%, negative = inhibition) at 10uM [%]"
1,Cc1cc(/C=C2/SC(=S)N(c3cccc(Cl)c3)C2=O)c(C)n1-c1cccnc1,-0.0371
2,COc1ccc(C(O)(c2ccccc2OC)C(CN2CCOCC2)c2ccccc2)cc1.Cl (centres unmarked),-18.2
3,CCOc1ccc(-n2nnc3c(=O)n(CC(=O)c4ccccc4)cnc32)cc1,-1.37
4,Cc1ccccc1OCC(=O)Nc1nnc(C2CC2)s1,4.5
5,COC(=O)c1sccc1NC(=O)Nc1ccc(F)cc1F,7.71
6,O=C(N/N=C/c1cc([N+](=O)[O-])ccc1O)C12CC3CC(CC(C3)C1)C2,8.39
7,O=C(NC1CCCCC1)c1ccc(COc2ccccc2)o1,2.32
8,CCc1nc2ccccc2c(=O)n1/N=C/c1ccc(Cl)cc1,-8.59
9,COC(=O)C1C2C=CC(C3CC23)C1C(=O)OCC(=O)c1ccc(OC)cc1 (centres unmarked),1.88
10,COc1cc(C(=O)NCC(=O)NC(C)c2ccc(-n3ccnc3)cc2)cc(OC)c1OC (centres unmarked),-3.06
11,COc1ccc(C2/C(=C(\O)c3ccc4c(c3)OCCO4)C(=O)C(=O)N2CCCn2ccnc2)cc1 (centres unmarked),8
12,CNC(=O)c1c(NC(NC(=O)c2ccco2)C(=O)c2ccc(Cl)cc2)sc2c1CCCC2 (centres unmarked),-20.3
13,CCOC(=O)N1CCN(c2nc(-c3ccc(Cl)cc3)cs2)CC1,-8.2
14,CN(C)C(=O)c1ccc(NC(=O)CN2C(=O)NC3(CCCc4ccccc43)C2=O)cc1 (centres unmarked),9.2
15,COc1ccc(CCN(C)C(=O)c2cc(=O)c3ccccc3o2)cc1OC,7.6
16,CN(CCCNC(=O)c1cccn2c(=O)c3ccccc3nc12)Cc1ccccc1,-74.1
17,COc1ccc(-c2cc(C(=O)NCCN3CCOCC3)c3ccccc3n2)cc1,-24.7
18,C/C(=N\N1CCN(c2ccc(Cl)cc2)CC1)c1ccco1,-6.54
19,COc1ccc(C2CC(=O)NC3=C2C(=O)CCC3)cc1Cl (centres unmarked),1.44

row,SMILES,"hERG current change (%, negative = inhibition) at 10uM [%]"
1,COc1cc2oc(=O)ccc2c(OC)c1CC(O)C(C)(C)O (centres unmarked),8.15
2,NS(=O)(=O)c1cccc(NC(=O)COC(=O)Cc2ccc(Cl)cc2)c1,-3
3,Cc1cc(NC(=O)c2ccc([N+](=O)[O-])cc2)n(CCC#N)n1,11
4,Cn1c(=O)c2c(SCc3cccnc3)nc(CC(C)(C)C)nc2n(C)c1=O,-59.6
5,COc1cc(CNC2CCCCCCC2)cc(Br)c1OCC#N.Cl,-22.4
6,C/C(=N\NC(=O)CNc1ccc(F)cc1)c1cc2ccccc2o1,-26.6
7,COc1ccc(NC(=O)CCCCC#Cc2ccccc2)cc1,4.46
8,Cc1cc(Cl)ccc1OCC(=O)Nn1c(C)ccc1C,3.73
9,CCN(CC(=O)Nc1ccc(OC)cc1)C(=O)c1ccc(NS(=O)(=O)c2ccc(C(C)=O)cc2)cc1,12.8
10,CC1O[C@@H](O[C@H](C)CC[C@@H](C)O[C@H]2OC(C)[C@@H](O)C[C@H]2O)C(O)C[C@H]1O (some centres unmarked),19.5
11,COc1cc(C(=O)Nc2ccc(-c3nc4cc(C)ccc4o3)c(O)c2)cc(OC)c1OC,16
12,O=C(C1=C[C@@H](c2coc3ccccc3c2=O)C[C@@H](OCCCCO)O1)N1CCN(Cc2ccccc2)CC1,-57.9
13,O=S(=O)(Nc1ccc(Cl)cn1)c1cnc(Cl)c(Br)c1,-4.3
14,Cc1nnc(SCc2nnc(-c3ccccc3)o2)n(N)c1=O,2.01
15,Cc1cccc(N(CC(=O)N/N=C/c2ccc(C(=O)O)cc2)S(=O)(=O)c2ccccc2)c1C,0.123
16,N#C/C(=C\c1ccccc1)C(=O)Nc1nncs1,10.4
17,COc1ccc(/C=N/N2C(=N)SCC2=O)cc1,10.1
18,Cc1c(C)n(Cc2ccccc2)c2ncnc(Cl)c12,8.96
19,Cn1c(SCC(=O)c2ccc(-c3ccccc3)cc2)nnc1-c1ccco1,-13.3

row,SMILES,"hERG current change (%, negative = inhibition) at 10uM [%]"
1,O=C1c2ccncc2C(=O)N1CNc1ccc(Cl)cc1,16.5
2,CC(C)(C)c1ccc2c(c1)N(CC(=O)O)C(=O)CO2,-48.8
3,O=C(CSc1nnc(-c2ccccc2F)n1C1CCCCC1)N1CCCC1,-13.1
4,COc1ccc(NS(=O)(=O)c2ccc3c(c2)CCN3C(=O)CCC(=O)O)cc1OC,5.37
5,Cl.O=C(CNC1CCCCCC1)c1cccs1,0.333
6,O=C(Nc1ccc(F)cc1F)N1CCN(C/C=C/c2ccccc2)CC1,-39.9
7,CCC(C)NC(=O)CSc1nc2ccsc2c(=O)n1-c1ccc(OC)cc1 (centres unmarked),-3.72
8,C/C(=N\NC(=O)c1cc(C)nc2ccccc12)c1cccs1,-9.87
9,CC(C)(C)n1ncc2c(=O)n(CC(=O)NCc3ccco3)cnc21,-4.55
10,COc1cccc(OCC(O)CO)c1 (centres unmarked),1.15
11,CC1(C)Cc2cccc(Oc3cc(NN4CCCCC4)c([N+](=O)[O-])cc3[N+](=O)[O-])c2O1,20.8
12,CNC(=S)N(CCc1c(C)[nH]c2ccc(OC)cc12)Cc1cc(OC)c(OC)c(OC)c1,-5.87
13,COc1ccccc1NC(=S)NC(=O)C1CC1,0.654
14,Cc1cc(C)cc(OCC(=O)Nc2ccc(N3CCOCC3)cc2N2CCOCC2)c1,-6.54
15,N#CCCn1cnc2ccccc21,16.5
16,CCN(CC)c1ccc(NC(=S)NC(=O)c2cccs2)cc1,2.13
17,CCN(CC)S(=O)(=O)c1ccc(Cl)c(NC(=O)CCCCl)c1,-43.2
18,O=C(O)c1cn(-c2ccccc2)nc1C(=O)O,5.7
